Several values for one entry are separate records, joined by “and”; a condition that tells them apart may be missing. Identical values can stand only once. This is one part of the list. Further columns of the screen follow, without active or inactive calls.

Common to all, as to experiment: Primary Screen for Target Class Profiling of Small Molecule Inhibitors of Methyltransferases
In experiment [1] the target is Glycine N-methyltransferase (Homo sapiens) (UniProt Q14749). The conditions noted are these: purified enzyme, MTase-Glo SAH luminescence; measured here: GNMT inhibition; at 40 µM; stronger effect = lower value. The procedure, abridged: (§1)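 Each enzyme was assayed with SAM and its substrate. SAH formation detected by MTase-Glo luminescence; single-point 40 uM screen[…].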

For experiment [2], the target named is Guanidinoacetate N-methyltransferase (Homo sapiens) (UniProt Q14353). To be noted: purified enzyme, MTase-Glo SAH luminescence; measured here: GAMT inhibition; at 40 µM; stronger effect = lower value. In short, it runs like this: as §1
In experiment [3] the target is Histamine N-methyltransferase (Homo sapiens) (UniProt P50135). To be noted: purified enzyme, MTase-Glo SAH luminescence; measured here: HNMT inhibition; at 40 µM; stronger effect = lower value. The procedure, abridged: as §1
For experiment [4], the target named is Nicotinamide N-methyltransferase (Homo sapiens) (UniProt P40261). The conditions noted are these: purified enzyme, MTase-Glo SAH luminescence; measured here: NNMT inhibition; at 40 µM; stronger effect = lower value. In short, it runs like this:
as §1

Experiment [5] has as its target Phenylethanolamine N-methyltransferase (Homo sapiens) (UniProt P11086). The conditions noted are these: purified enzyme, MTase-Glo SAH luminescence; measured here: PNMT inhibition; at 40 µM; stronger effect = lower value. The procedure, abridged:
as §1
% is scaled to controls: 0 for no effect and ±100 for the full control effect.

Regarding `CN(C)CCCc1cc(C(=O)Nc2ccc(-c3ccncc3)cc2)ccc1O`, the activity change, negative = inhibition is -14.8% in experiment [1]; 3.29% in experiment [2]; -79.9% in experiment [3]; -12.5% in experiment [4]; -3.59% in experiment [5].

On to `Cc1nn2c(c1-c1ccccc1C(C)C)N([S+](=O)([O-])c1ccc(C(C)C)cc1)CCC2`, for which the activity change, negative = inhibition in experiment [1] was -6.08%; in experiment [2], -3.67%; in experiment [3], -7.78%; in experiment [4] it was -16.3%; in experiment [5], 3.28%.

As to `CC(=O)OCC(=O)Nc1cc(C#N)cc(NC(=O)COC(C)=O)c1Cl`, the activity change, negative = inhibition is 6.38% in experiment [1]; 6.3% in experiment [2]; 7% in experiment [3]; -5.49% in experiment [4]; 2.39% in experiment [5].

As for `CC1(C)CC[C@]2(C(=O)OC3OC(CO)C(O)C(O)C3O)CC[C@]3(C)C(=CCC4[C@@]5(C)CC[C@H](OC6OC(C(=O)O)C(O)C(O)C6O)C(CO)(CO)C5CC[C@]43C)[C@@H]2C1` (stereo not given in full), the activity change, negative = inhibition in experiment [1] is 0%; in experiment [2], -1.02%; in experiment [3], 0.69%; in experiment [4], -11.9%; in experiment [5], 2.83%.

Turning to `Cn1ncc(Cl)c1-c1cc(C(=O)NC(CN)Cc2ccc(F)c(F)c2)oc1Cl` (stereo not given), the activity change, negative = inhibition was -1.36% in experiment [1]; 4.68% and 1.31% in experiment [2]; 4.69% in experiment [3]; -23.1% and -21.9% in experiment [4]; -3.1% and -8.4% in experiment [5].

Regarding `O=C(CCCc1ccccc1)Nc1ccnn1C1CCN(C(=O)c2ccccc2F)CC1`, the activity change, negative = inhibition was -0.109% in experiment [1]; 1.89% in experiment [2]; 3.21% in experiment [3]; -3.22% in experiment [4]; -10.6% in experiment [5].

Regarding `COCCCNC(=O)C1(C)Cn2nc(-c3ccccc3)cc2C(=O)N1c1cccc(Cl)c1C` (stereo not given), the activity change, negative = inhibition in experiment [1] was 2.29%; in experiment [2], 2.12%; in experiment [3], 5.13%; in experiment [4] it was 3.86%; in experiment [5], -0.99%.

In the case of `CC(C)N1C(=O)C2(CCN(C(=O)c3ccccc3F)CC2)C1c1ccccc1` (stereo not given), the activity change, negative = inhibition in experiment [1] is -6.52%; in experiment [2], -7.74%; in experiment [3] it was -5.91%; in experiment [4], -15.3%; in experiment [5], -14.1%.

Regarding `Cc1nn2c(c1-c1ccccc1C(C)C)N(C(=O)c1cccnc1)CCC2`, the activity change, negative = inhibition is -6.09% in experiment [1]; -6.88% in experiment [2]; -4% in experiment [3]; -19% in experiment [4]; -13.8% in experiment [5].

Regarding `COc1cccc(NC(=O)N2CCn3cccc3C2C)c1` (stereo not given), the activity change, negative = inhibition in experiment [1] is -6.6%; in experiment [2] it was 4.48%; in experiment [3], -6.94%; in experiment [4] it was -16.8%; in experiment [5] it was -4.5%.

With `COc1cccc(N2C(=O)c3cc4occc4n3CC2(C)C(=O)NC2CCCCCC2)c1` (stereo not given), the activity change, negative = inhibition in experiment [1] is 1.88%; in experiment [2] it was -37.7%; in experiment [3], 4.57%; in experiment [4], 9.14%; in experiment [5], 3.81%.

As to `CC1(C(=O)NC2CCCCCC2)Cc2ccccc2C(=O)N1CCN1CCOCC1` (stereo not given), the activity change, negative = inhibition was -4.76% in experiment [1]; 4.69% in experiment [2]; 5.66% in experiment [3]; 8.11% in experiment [4]; -1.77% in experiment [5].

As for `Cc1ccc(CNC(=O)CN2C(=O)C(c3ccccc3)=NC23CCCCC3)cc1`, the activity change, negative = inhibition in experiment [1] is -5.04%; in experiment [2] it was -3.19%; in experiment [3] it was 1.13%; in experiment [4] it was -6.2%; in experiment [5] it was -2.52%.

As to `COc1ccc(-c2cc(N3CCC(NC(=O)c4ccncc4)C3)n[nH]2)cc1` (stereo not given), the activity change, negative = inhibition in experiment [1] is -12.6%; in experiment [2], -8.66%; in experiment [3], -4.71%; in experiment [4], -15.6%; in experiment [5], -14.2%.

As for `CC(C)CCn1c(=O)c2ccccc2n2c(CCC(=O)NCc3cccnc3)nnc12`, the activity change, negative = inhibition in experiment [1] is 2.13%; in experiment [2] it was 2.06%; in experiment [3] it was 7.62%; in experiment [4] it was 1.29%; in experiment [5], 2.55%.

With `C=CCNC(=O)N[C@H]1C[C@H]2C(=O)Nc3ccc(/C=C/c4ccc(OC)cc4)cc3C(=O)N2C1`, the activity change, negative = inhibition was -11.4% in experiment [1]; -10.6% in experiment [2]; -8.27% in experiment [3]; -7.29% in experiment [4]; -6.9% in experiment [5].

On to `FC(F)(F)c1ccc(N2C3CCC2CN(Cc2ccc(-c4cccs4)cc2)C3)cc1`, for which the activity change, negative = inhibition in experiment [1] is -1.07%; in experiment [2], 2.97%; in experiment [3] it was -0.164%; in experiment [4], 0.053%; in experiment [5], 1.25%.

Regarding `Cc1nc2c([nH]1)c(=O)n(C)c(=O)n2Cc1ccco1`, the activity change, negative = inhibition in experiment [1] was -5.08%; in experiment [2], 7.19%; in experiment [3], -0.238%; in experiment [4], -3.67%; in experiment [5], 7.66%.

For the compound `Cc1ccc(NC(=O)N2CCn3c(C)ccc3C2C(C)C)c(C)c1` (stereo not given), the activity change, negative = inhibition is -2.47% in experiment [1]; 3.17% in experiment [2]; -7.56% in experiment [3]; -10.6% in experiment [4]; -7.24% in experiment [5].

`CCOC(=O)CNC(=O)N1Cc2c(sc3c2CCCC3)-n2cccc2C1c1ccc(C(C)C)cc1` (stereo not given): the activity change, negative = inhibition was -0.789% in experiment [1]; 1.31% in experiment [2]; 4.13% in experiment [3]; -1.56% in experiment [4]; 8.66% in experiment [5].

`O=c1ccc(NS(=O)(=O)c2ccccc2)c2n1C[C@H]1C[C@@H]2CN(S(=O)(=O)c2ccccc2)C1`: the activity change, negative = inhibition is -5.23% in experiment [1]; -6.79% in experiment [2]; -2.75% in experiment [3]; -10.2% in experiment [4]; -7.47% in experiment [5].

Take `CN1C(=O)c2cc(NC(=O)c3cccc(N(C)C)c3)ccc2N2CCN=C12`: the activity change, negative = inhibition in experiment [1] is -8.2%; in experiment [2], 0%; in experiment [3], 3.37%; in experiment [4], 9.52%; in experiment [5] it was -3.61%.

In the case of `COCCN1C(=O)c2cc3sccc3n2CC1(C)C(=O)NC1CCCCC1C` (stereo not given), the activity change, negative = inhibition in experiment [1] was -0.797%; in experiment [2], 0.272%; in experiment [3], 3.91%; in experiment [4] it was -8.57%; in experiment [5], 0.278%.

For the compound `CSc1cccc(N2C(=O)c3cc(-c4cccs4)nn3CC2(C)C(=O)NC2CCCCC2)c1` (stereo not given), the activity change, negative = inhibition in experiment [1] was -0.913%; in experiment [2], 0%; in experiment [3], 1.5%; in experiment [4] it was -1.82%; in experiment [5], -1.32%.

In the case of `C[C@H](Nc1ncnc2nc[nH]c12)c1cc2cccc(Cl)c2c(=O)n1-c1ccccc1`, the activity change, negative = inhibition in experiment [1] was -12.1%; in experiment [2], -14.9% and -4.4%; in experiment [3], -1.09%; in experiment [4], -20.3% and -20.6%; in experiment [5], -4.38% and -0.107%.

With `CC1(C(=O)NC2CCCC2)Cn2c(ccc2-c2ccco2)C(=O)N1CCN1CCCCCC1` (stereo not given), the activity change, negative = inhibition in experiment [1] was -6.73%; in experiment [2], 3.52%; in experiment [3], -9.79%; in experiment [4], -6.57%; in experiment [5], -1.3%.

As to `CN(C)c1ccc(CNC(=O)Cn2c(=O)oc3cc(S(=O)(=O)NCc4ccccc4)ccc32)cc1`, the activity change, negative = inhibition in experiment [1] was 6.19%; in experiment [2] it was 0.465%; in experiment [3] it was 2.65%; in experiment [4], 1.23%; in experiment [5], 3.61%.

For `COc1cccc([S+](=O)([O-])N2CCC3(CC(C)=NO3)C2)c1` (stereo not given), the activity change, negative = inhibition in experiment [1] is -12.1%; in experiment [2], -11.1%; in experiment [3] it was -2.14%; in experiment [4], -8.15%; in experiment [5], -5.12%.

With `O=C1CSc2ccccc2N1Cc1cccc(C(F)(F)F)c1`, the activity change, negative = inhibition was 0.352% in experiment [1]; -10.3% in experiment [2]; -4.44% in experiment [3]; -55% in experiment [4]; -18.4% in experiment [5].

As for `COc1ccc(NS(=O)(=O)c2cc3[nH]c(=O)[nH]c3cc2Cl)cc1`, the activity change, negative = inhibition in experiment [1] was 0.247%; in experiment [2], 9.61%; in experiment [3], 7.16%; in experiment [4], 5.78%; in experiment [5], -19%.
